The supplement of paper PMC9542798

Experiments:
Assay in all cases: minimum inhibitory concentration
[1] = compound: CC1(C)S[C@@H]2[C@H](NC(=O)[C@H](N)c3ccccc3)C(=O)N2[C@H]1C(=O)O [Ampicillin]
Protocol: (§1)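 Broth microdilution MIC per ISO 10932 on precoated VetMIC Lact-1 plates (tylosin, vancomycin and ampicillin plates prepared manually) against lactic acid bacteria and bifidobacteria isolates. Plates were read visually after 48 h anaerobic incubation (bifidobacteria 72 h; enterococci and staphylococci 24 h aerobic) at species-specific temperatures of 30 or 37 °C. Values prefixed with < or > are outside the tested dilution range.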

[2] = compound: CCC[C@@H]1C[C@@H](C(=O)N[C@@H]([C@H]2O[C@H](SC)[C@H](O)[C@@H](O)[C@H]2O)[C@H](C)Cl)N(C)C1 [Clindamycin]
Protocol: as §1

[3] = compound: CC[C@H]1OC(=O)[C@H](C)[C@@H](O[C@H]2C[C@@](C)(OC)[C@@H](O)[C@H](C)O2)[C@H](C)[C@@H](O[C@@H]2O[C@H](C)C[C@H](N(C)C)[C@H]2O)[C@](C)(O)C[C@@H](C)C(=O)[C@H](C)[C@@H](O)[C@]1(C)O [Erythromycin]
Protocol: as §1

[4] = compound: CN(C)[C@@H]1C(O)=C(C(N)=O)C(=O)[C@@]2(O)C(O)=C3C(=O)c4c(O)cccc4[C@@](C)(O)[C@H]3C[C@@H]12 [Tetracycline]
Protocol: as §1

[5] = compound: CNC(C)C1CCC(N)C(OC2C(N)CC(N)C(OC3OCC(C)(O)C(NC)C3O)C2O)O1 [Gentamicin]
Protocol: as §1

[6] = compound: CN[C@@H]1[C@H](O[C@H]2[C@H](O[C@H]3[C@H](O)[C@@H](O)[C@H](N=C(N)N)[C@@H](O)[C@@H]3N=C(N)N)O[C@@H](C)[C@]2(O)C=O)O[C@@H](CO)[C@H](O)[C@H]1O [Streptomycin]
Protocol: as §1

[7] = compound: CN[C@H](CC(C)C)C(=O)N[C@H]1C(=O)N[C@@H](CC(N)=O)C(=O)N[C@H]2C(=O)N[C@H]3C(=O)N[C@H](C(=O)N[C@H](C(=O)O)c4cc(O)cc(O)c4-c4cc3ccc4O)[C@H](O)c3ccc(c(Cl)c3)Oc3cc2cc(c3O[C@@H]2O[C@H](CO)[C@@H](O)[C@H](O)[C@H]2O[C@H]2C[C@](C)(N)[C@H](O)[C@H](C)O2)Oc2ccc(cc2Cl)[C@H]1O [Vancomycin]
Protocol: as §1

[8] = compound: NC[C@@H]1O[C@H](O[C@H]2[C@@H](O)[C@H](O[C@@H]3[C@@H](O)[C@H](N)C[C@H](N)[C@H]3O[C@H]3O[C@H](CN)[C@@H](O)[C@H](O)[C@H]3N)O[C@@H]2CO)[C@H](N)[C@@H](O)[C@@H]1O [Neomycin]
Protocol: as §1

[9] = compound: NC[C@H]1O[C@H](O[C@H]2[C@H](O)[C@@H](O[C@H]3O[C@H](CO)[C@@H](O)[C@H](N)[C@H]3O)[C@H](N)C[C@@H]2N)[C@H](O)[C@@H](O)[C@@H]1O [Kanamycin]
Protocol: as §1

[10] = compound: O=C(N[C@H](CO)[C@H](O)c1ccc([N+](=O)[O-])cc1)C(Cl)Cl [Chloramphenicol]
Protocol: as §1
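Further: isolates derived from commercial starter, protective, probiotic or feed-additive cultures, from fermented products, from human gut mucosa or feces, and from human milk or colostrum.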

Bifidobacterium bifidum IM960 (strain group: human intestinal mucosa or faeces)
minimum inhibitory concentration [1]: 0.063 µg/mL
minimum inhibitory concentration [2]: 0.12 µg/mL
minimum inhibitory concentration [3]: 0.12 µg/mL
minimum inhibitory concentration [4]: 1 µg/mL
minimum inhibitory concentration [5]: 128 µg/mL
minimum inhibitory concentration [6]: 128 µg/mL
minimum inhibitory concentration [7]: 0.5 µg/mL
minimum inhibitory concentration [8]: 256 µg/mL
minimum inhibitory concentration [9]: 512 µg/mL
minimum inhibitory concentration [10]: 1 µg/mL

Lactococcus lactis IM1371 (strain group: starter cultures)
minimum inhibitory concentration [1]: 0.5 µg/mL
minimum inhibitory concentration [2]: 0.5 µg/mL
minimum inhibitory concentration [3]: 0.25 µg/mL
minimum inhibitory concentration [4]: 0.5 µg/mL
minimum inhibitory concentration [5]: 2 µg/mL
minimum inhibitory concentration [6]: 32 µg/mL
minimum inhibitory concentration [7]: 0.5 µg/mL
minimum inhibitory concentration [8]: 16 µg/mL
minimum inhibitory concentration [9]: 16 µg/mL
minimum inhibitory concentration [10]: 4 µg/mL

Bifidobacterium adolescentis IM681 (strain group: human intestinal mucosa or faeces)
minimum inhibitory concentration [1]: 0.063 µg/mL
minimum inhibitory concentration [2]: < 0.03 µg/mL
minimum inhibitory concentration [3]: < 0.016 µg/mL
minimum inhibitory concentration [4]: 0.5 µg/mL
minimum inhibitory concentration [5]: 16 µg/mL
minimum inhibitory concentration [6]: 16 µg/mL
minimum inhibitory concentration [7]: < 0.25 µg/mL
minimum inhibitory concentration [8]: 64 µg/mL
minimum inhibitory concentration [9]: 128 µg/mL
minimum inhibitory concentration [10]: 2 µg/mL

Limosilactobacillus fermentum IM848 (strain group: human milk or colostrum)
minimum inhibitory concentration [1]: 1 µg/mL
minimum inhibitory concentration [2]: 0.06 µg/mL
minimum inhibitory concentration [3]: 0.25 µg/mL
minimum inhibitory concentration [4]: 4 µg/mL
minimum inhibitory concentration [5]: 4 µg/mL
minimum inhibitory concentration [6]: 32 µg/mL
minimum inhibitory concentration [7]: > 128 µg/mL
minimum inhibitory concentration [8]: 4 µg/mL
minimum inhibitory concentration [9]: 64 µg/mL
minimum inhibitory concentration [10]: 8 µg/mL

Lactobacillus delbrueckii IM1092 (strain group: starter cultures)
minimum inhibitory concentration [1]: 0.25 µg/mL
minimum inhibitory concentration [2]: 0.06 µg/mL
minimum inhibitory concentration [3]: 0.06 µg/mL
minimum inhibitory concentration [4]: 1 µg/mL
minimum inhibitory concentration [5]: 2 µg/mL
minimum inhibitory concentration [6]: 2 µg/mL
minimum inhibitory concentration [7]: 1 µg/mL
minimum inhibitory concentration [8]: 2 µg/mL
minimum inhibitory concentration [9]: 16 µg/mL
minimum inhibitory concentration [10]: 2 µg/mL

Streptococcus thermophilus IM1417 (strain group: starter cultures)
minimum inhibitory concentration [1]: 0.125 µg/mL
minimum inhibitory concentration [2]: < 0.03 µg/mL
minimum inhibitory concentration [3]: 0.03 µg/mL
minimum inhibitory concentration [4]: 0.25 µg/mL
minimum inhibitory concentration [5]: < 0.5 µg/mL
minimum inhibitory concentration [6]: 4 µg/mL
minimum inhibitory concentration [7]: < 0.25 µg/mL
minimum inhibitory concentration [8]: < 0.5 µg/mL
minimum inhibitory concentration [9]: < 2 µg/mL
minimum inhibitory concentration [10]: 2 µg/mL

Bifidobacterium adolescentis IM758 (strain group: human intestinal mucosa or faeces)
minimum inhibitory concentration [1]: 0.125 µg/mL
minimum inhibitory concentration [2]: 0.12 µg/mL
minimum inhibitory concentration [3]: 0.12 µg/mL
minimum inhibitory concentration [4]: 1 µg/mL
minimum inhibitory concentration [5]: 128 µg/mL
minimum inhibitory concentration [6]: 128 µg/mL
minimum inhibitory concentration [7]: 0.5 µg/mL
minimum inhibitory concentration [8]: 256 µg/mL
minimum inhibitory concentration [9]: 512 µg/mL
minimum inhibitory concentration [10]: 2 µg/mL

Lactobacillus gasseri/johnsonii IM875 (strain group: human milk or colostrum)
minimum inhibitory concentration [1]: 1 µg/mL
minimum inhibitory concentration [2]: 4 µg/mL
minimum inhibitory concentration [3]: 0.12 µg/mL
minimum inhibitory concentration [4]: 2 µg/mL
minimum inhibitory concentration [5]: 2 µg/mL
minimum inhibitory concentration [6]: 16 µg/mL
minimum inhibitory concentration [7]: 1 µg/mL
minimum inhibitory concentration [8]: 16 µg/mL
minimum inhibitory concentration [9]: 128 µg/mL
minimum inhibitory concentration [10]: 8 µg/mL
